Test [1] deals with RSV L-Twin-Strep-tag + P-his (human respiratory syncytial virus) (UniProt P28887). Nature of the test: BLI; Octet RED 384, 25°C; L-Twin-Strep-tag + P-his loaded on Ni-NTA sensors via the His tag of P; single concentration 2 µM GST-Rab11a variant, 600 s association, 300 s dissociation; 50 mM Tris-HCl pH 8.0, 300 mM NaCl, 0.02% Tween-20, BSA; no GTP for Rab11a WT; GTP not specified for CA and DN; both purified.

By UniProt entry, the sequences of proteins in these tests, tags left out. Where a name states a change or a piece, a line headed by the entry shows the natural chain unless it says otherwise. Chains listed by the source or under a name are the forms on record and can include a tag or linker. Residues count along the entry.
UniProt P28887: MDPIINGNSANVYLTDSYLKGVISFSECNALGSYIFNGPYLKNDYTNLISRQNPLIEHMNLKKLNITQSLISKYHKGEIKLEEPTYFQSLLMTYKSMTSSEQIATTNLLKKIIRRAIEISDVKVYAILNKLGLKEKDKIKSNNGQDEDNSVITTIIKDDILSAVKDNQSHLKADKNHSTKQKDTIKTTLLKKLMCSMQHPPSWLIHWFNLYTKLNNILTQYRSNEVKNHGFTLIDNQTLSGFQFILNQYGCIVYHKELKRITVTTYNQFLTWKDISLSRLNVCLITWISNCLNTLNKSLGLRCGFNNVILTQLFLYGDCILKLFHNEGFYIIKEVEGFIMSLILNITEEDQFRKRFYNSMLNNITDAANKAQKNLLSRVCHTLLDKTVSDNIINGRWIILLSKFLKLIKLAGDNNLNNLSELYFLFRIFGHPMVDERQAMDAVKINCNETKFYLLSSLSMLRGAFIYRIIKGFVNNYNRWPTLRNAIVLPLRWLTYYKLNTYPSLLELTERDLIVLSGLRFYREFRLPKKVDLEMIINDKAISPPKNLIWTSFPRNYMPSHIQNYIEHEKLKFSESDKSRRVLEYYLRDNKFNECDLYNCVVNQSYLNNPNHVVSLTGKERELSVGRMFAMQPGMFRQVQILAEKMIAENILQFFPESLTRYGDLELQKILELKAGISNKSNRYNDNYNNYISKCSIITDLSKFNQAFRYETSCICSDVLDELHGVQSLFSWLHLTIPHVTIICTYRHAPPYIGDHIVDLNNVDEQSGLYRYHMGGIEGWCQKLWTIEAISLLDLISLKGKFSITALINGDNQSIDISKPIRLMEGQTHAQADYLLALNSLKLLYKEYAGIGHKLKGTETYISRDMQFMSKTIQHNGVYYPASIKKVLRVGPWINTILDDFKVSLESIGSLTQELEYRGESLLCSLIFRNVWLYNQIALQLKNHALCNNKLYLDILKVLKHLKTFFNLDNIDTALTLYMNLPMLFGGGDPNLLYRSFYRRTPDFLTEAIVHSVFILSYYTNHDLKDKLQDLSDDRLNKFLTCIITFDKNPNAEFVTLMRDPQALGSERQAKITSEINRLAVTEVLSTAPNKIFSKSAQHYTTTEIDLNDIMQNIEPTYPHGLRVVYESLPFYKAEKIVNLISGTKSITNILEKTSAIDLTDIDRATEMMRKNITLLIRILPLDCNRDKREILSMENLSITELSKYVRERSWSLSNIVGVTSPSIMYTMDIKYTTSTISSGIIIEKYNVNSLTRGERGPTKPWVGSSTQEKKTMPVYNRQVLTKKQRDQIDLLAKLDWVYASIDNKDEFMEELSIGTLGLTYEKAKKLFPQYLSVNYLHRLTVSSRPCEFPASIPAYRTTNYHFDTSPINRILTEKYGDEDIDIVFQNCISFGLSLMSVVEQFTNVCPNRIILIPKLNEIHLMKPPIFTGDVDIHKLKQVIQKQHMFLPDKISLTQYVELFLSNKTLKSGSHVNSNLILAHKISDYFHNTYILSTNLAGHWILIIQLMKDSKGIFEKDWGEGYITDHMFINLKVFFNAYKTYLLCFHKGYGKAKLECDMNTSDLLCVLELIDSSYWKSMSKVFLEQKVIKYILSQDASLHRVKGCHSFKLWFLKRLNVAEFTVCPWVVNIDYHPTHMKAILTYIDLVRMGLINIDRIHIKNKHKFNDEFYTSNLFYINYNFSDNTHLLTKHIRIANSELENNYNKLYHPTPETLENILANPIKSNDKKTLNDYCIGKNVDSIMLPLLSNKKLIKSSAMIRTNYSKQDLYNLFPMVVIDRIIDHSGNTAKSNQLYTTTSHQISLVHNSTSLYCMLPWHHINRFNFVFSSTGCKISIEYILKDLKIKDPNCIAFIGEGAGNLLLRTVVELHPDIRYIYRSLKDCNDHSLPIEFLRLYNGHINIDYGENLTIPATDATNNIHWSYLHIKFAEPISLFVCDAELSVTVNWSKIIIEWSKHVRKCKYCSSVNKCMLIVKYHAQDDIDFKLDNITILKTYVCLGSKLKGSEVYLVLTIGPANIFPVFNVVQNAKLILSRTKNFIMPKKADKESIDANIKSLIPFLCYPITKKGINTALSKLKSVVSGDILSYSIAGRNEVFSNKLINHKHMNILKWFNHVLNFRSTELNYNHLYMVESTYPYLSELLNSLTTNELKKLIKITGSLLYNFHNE
L_(1-1755)-GFP: residues 1-1755 of P28887
GFP-L_(2040-2165): residues 2040-2165 of P28887
UniProt P62491: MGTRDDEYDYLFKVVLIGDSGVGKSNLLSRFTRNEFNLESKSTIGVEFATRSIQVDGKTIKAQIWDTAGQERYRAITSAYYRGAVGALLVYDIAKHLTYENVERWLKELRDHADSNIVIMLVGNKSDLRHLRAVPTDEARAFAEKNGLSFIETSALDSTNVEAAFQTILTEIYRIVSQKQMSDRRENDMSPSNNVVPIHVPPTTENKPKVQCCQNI
HA-Rab11aCAAAA (P62491, form named): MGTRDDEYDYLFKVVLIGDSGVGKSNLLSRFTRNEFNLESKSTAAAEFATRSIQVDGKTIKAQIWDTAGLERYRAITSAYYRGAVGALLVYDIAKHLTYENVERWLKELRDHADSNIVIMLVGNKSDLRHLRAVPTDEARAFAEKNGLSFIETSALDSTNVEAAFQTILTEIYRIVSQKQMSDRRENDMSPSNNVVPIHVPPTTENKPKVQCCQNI

Test [2] shares this target. Nature of the test: BLI; as a5 (single concentration 2 µM) but with 1 mM GTP (GST-Rab11a WT); both purified.
The target is the same in test [3]. Put plainly: BLI; Octet RED 384, 25°C; L-Twin-Strep-tag + P-his loaded on Ni-NTA sensors; two-fold dilutions of GST-Rab11a (with 1 mM GTP) or GST-Rab11a CA from 50 nM to 3.2 µM; association 60 min to steady state, dissociation 5 min; apparent KD from steady-state responses, one-site model, double referenced; both purified.
The target in test [4] is L_(1-1755)-GFP (human respiratory syncytial virus) (UniProt P28887). Nature of the test: co-IP; HEK-293T co-transfected for 24 h; cells treated with 300 µM DSP cross-linker for 30 min before lysis (25 mM Tris-HCl pH 7.5, 200 mM NaCl, 1 mM EDTA, 0.5% NP40); GFP-Trap beads overnight at 4°C precipitate the GFP-tagged viral protein; HA-Rab11a detected by anti-HA Western blot. (In western blotting, separated proteins are transferred to a membrane and probed.)

The target in test [5] is GFP-L_(2040-2165) (human respiratory syncytial virus) (UniProt P28887). The test is described as above.
Test [6] deals with L-GFP full length (1-2165) co-expressed with P (L-P complex) (human respiratory syncytial virus) (UniProt P28887). Described as above.
Test [7] concerns the target GST-Rab11a(S25N) DN (human) (UniProt P62491). Put plainly: pull-down; purified GST or GST-Rab11a variants on Glutathione Sepharose 4B beads incubated 3 h at 4°C with lysates of HEK-293T cells expressing GFP-tagged L constructs (with or without P); 50 mM Tris-HCl pH 7.5, 300 mM NaCl, 0.6% NP-40; no GTP in this experiment; anti-GFP Western blot; only the target ….
The target in test [8] is GST-Rab11a(Q70L) CA (human) (UniProt P62491). The test is described as above.

These are yes or no findings as the source states them, for the method shown. For part of these data: In cells and extracts the contact can be indirect. Some results given as binding are weak or reduced against the parent protein; the word gives no strength.

For “GST-Rab11a WT (from UniProt P62491 1-216)”, the binding entry is “no binding (condition: in the absence of GTP (2 µM))” in test [1] and “binds” in test [2]. With “GST-Rab11a(Q70L) CA (from UniProt P62491 1-216)”, the binding result in test [1] and in test [3] was “binds” each time. On to “GST-Rab11a(S25N) DN (from UniProt P62491 1-216)”, for which, in test [1], the binding result is “no binding (tested: 2 µM)”. In the case of “HA-Rab11a(Q70L) CA (from UniProt P62491 1-216)”, the binding result in test [4] is recorded as “no binding”; in test [5] it was “no binding”; in test [6], “binds”.

As to “HA-Rab11a(S25N) DN (from UniProt P62491 1-216)”, the binding entry in test [4] and in test [6] was “no binding” each time. As to “HA-Rab11aCAAAA (from UniProt P62491 1-216)”, the binding result in test [6] is reported as “no binding”. As for “L-GFP full length (1-2165) co-expressed with P (L-P complex) (from UniProt P28887 1-2165; P03421 1-241)”, the values for the binding result in test [7] and in test [8] were “no binding” and “binds”, respectively. For “full-length L-GFP expressed without P (from UniProt P28887 1-2165)”, the binding entry in test [7] is reported as “no binding”; in test [8], “binds”.

For the origin of these results see PMC13456277, “Direct interaction between RSV polymerase L and active Rab11a mediates viral ribonucleoprotein transport to assembly sites” (PLOS Pathogens, 2026).
